Our source for the activation values is PubChem BioAssay AID1645887 (National Center for Advancing Translational Sciences (NCATS), 2021).

Molecules are shown by their SMILES. “And” between values parts separate entries of the source, which are not always exact repeats. Equal entries are not always repeated. Hit rate of the full screen: of about 16,000 compounds, about 40 (0.2%) were called active. About 1% were inconclusive and are not listed. The call rests on the fitted dose curve; in most records, active means well fitted activation curve with a large enough effect; inconclusive means small, poorly fitted or top-dose-only effect, or another doubt; inactive means no such curve, though single readings can be large or run the other way. The list shows a part of the results. Residues, ends and D or L forms follow the SMILES beside them.
On the % scale 0 is the no-effect control and ±100 the full control effect.

For this experiment, the target named is Rap guanine nucleotide exchange factor 4 (Homo sapiens) (UniProt Q8WZA2). As to the kind of experiment: Validation qHTS for agonist of cAMP-regulated guanine nucleotide exchange factor 4 (EPAC2).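 Further: exchange makes BODIPY-GDP fluorescence drop when released from Rap1B; series mostly up to about 150 µM.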 The settings on record: EPAC2 Rap1B BODIPY-GDP exchange, fluorescence; activation: active compounds read high. In outline: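 Fluorescent exchange assay: 100 nM EPAC2 with 250 nM RAP1B-BODIPY-GDP and 50 uM GDP; compound added, 5 min at room temperature, then read (ex 480/em 540 nm) every 5 min for 30 min. Normalized to 6.5 mM cAMP agonist control.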
Chain of UniProt Q8WZA2 (Q8WZA2 whole entry, looked up): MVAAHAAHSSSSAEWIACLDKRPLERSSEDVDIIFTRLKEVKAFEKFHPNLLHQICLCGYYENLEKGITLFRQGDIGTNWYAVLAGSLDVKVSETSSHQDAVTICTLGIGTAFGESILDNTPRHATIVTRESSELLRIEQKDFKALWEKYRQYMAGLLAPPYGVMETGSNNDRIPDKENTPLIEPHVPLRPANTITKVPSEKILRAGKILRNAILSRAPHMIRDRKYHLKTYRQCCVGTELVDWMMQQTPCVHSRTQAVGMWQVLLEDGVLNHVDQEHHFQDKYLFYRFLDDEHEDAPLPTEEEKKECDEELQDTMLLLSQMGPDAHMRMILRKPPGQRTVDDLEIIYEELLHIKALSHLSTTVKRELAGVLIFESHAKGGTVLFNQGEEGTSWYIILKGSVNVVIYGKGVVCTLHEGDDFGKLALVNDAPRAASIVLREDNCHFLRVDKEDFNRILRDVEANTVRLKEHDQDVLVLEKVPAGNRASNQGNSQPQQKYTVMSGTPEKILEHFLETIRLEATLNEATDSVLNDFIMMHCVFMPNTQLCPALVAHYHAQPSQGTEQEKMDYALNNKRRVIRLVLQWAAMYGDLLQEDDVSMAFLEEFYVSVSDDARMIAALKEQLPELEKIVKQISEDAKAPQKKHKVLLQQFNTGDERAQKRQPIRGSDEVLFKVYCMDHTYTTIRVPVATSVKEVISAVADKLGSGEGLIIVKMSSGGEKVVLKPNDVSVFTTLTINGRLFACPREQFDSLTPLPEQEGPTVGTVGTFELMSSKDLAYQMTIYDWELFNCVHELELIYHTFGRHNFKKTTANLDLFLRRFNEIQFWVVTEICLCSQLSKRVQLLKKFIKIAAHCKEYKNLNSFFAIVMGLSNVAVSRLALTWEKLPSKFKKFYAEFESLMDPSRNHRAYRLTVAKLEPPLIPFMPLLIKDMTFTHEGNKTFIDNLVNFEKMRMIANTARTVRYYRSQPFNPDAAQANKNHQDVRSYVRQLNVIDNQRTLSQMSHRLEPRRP
Regarding `CC(C)NC(=O)N1CC[C@@]2(CCCN(C(=O)c3cccc(F)c3)C2)C1`, the activation was inactive: 4.36%.

Take `C[C@@H]1C[C@H]2C3C[C@H](F)C4=CC(=O)C=CC4(C)[C@@]3(F)[C@@H](O)CC2(C)[C@@]1(O)C(=O)COC(=O)C(C)(C)C` (some centres undefined): the activation is inactive: -10.2%. Regarding `Cc1ccc(CNc2ncnc3sc(C(=O)N4CCC(N5CCCC(O)C5)CC4)c(C)c23)o1` (centres undefined), the activation is inactive: 14.7%.

Take `Cc1ccccc1-c1nccc(-n2ccnc2)n1`: the activation is inactive: -7.47%. Then `CCC(O)CNC(=O)c1cnn(-c2ncc3c(n2)-c2ccccc2CCC3)c1C1CC1` (centres undefined), with inactive: -1.13%; and `CN[C@H]1CC[C@@H](c2ccc(Cl)c(Cl)c2)c2ccccc21`, with inactive: 1.66% and inactive: -85.2%; and `CCOC(=O)C(Cc1ccc(O)cc1)NC(C)=O` (centres undefined), with inactive: -11%. As for `Cc1c(C(=O)NCC2CCCN(C)C2)cnn1-c1nccc(-c2ccco2)n1` (centres undefined), the figure is inactive: -7.95%; as for `COCC(=O)Nc1cc(C(=O)N2CCSCC2)cc2nc(-c3ccccc3)n(C)c12`, inactive: -12.2%; as for `COC(=O)[C@H]1[C@@H]2C[C@@H]3c4[nH]c5ccccc5c4CCN3C[C@H]2CC[C@H]1O`, inactive: 0.0575%.

In the case of `c1ccc(Nc2ncncc2-c2ccc3c(c2)OCO3)cc1`, the activation was inactive: -22%. Then `COc1cc(-c2noc(C)c2C#Cc2ccc(N)cc2)cc(OC)c1OC`, with inactive: -10.7%; and `NC1(C(=O)O)CCc2cc(P(=O)(O)O)ccc21` (centres undefined), with inactive: 15.7%.

Turning to `Cc1cccc(CNc2ccnc(-c3cccc(NS(C)(=O)=O)c3)n2)c1`, the activation is inactive: -16.9%. Then `O=C(NC[C@H]1CCCCN1)c1cc(OCC(F)(F)F)ccc1OCC(F)(F)F`, with inactive: -13.1%; and `C=C1O[C@@](CO)(n2cnc3c(N)ncnc32)[C@H](O)[C@@H]1O`, with inactive: 2.13%; and `CN(C)Cc1ccccc1-c1cc(-n2ccnc2)ncn1`, with inactive: -18%. With `CN(C)Cc1ccccc1-c1cc(NCc2ccccc2)ncn1`, the activation is inactive: -16.5%. Turning to `Cn1c(=O)c(CCc2ccccc2)nc2cnc(N3CCNCC3)nc21`, the activation was inactive: 2.59%.

With `Cc1ccccc1CN1[C@@H]2c3ccccc3C[C@@H]2OCCS1(=O)=O`, the activation is inactive: -24.6%.

As for `C[C@@]12CCC(OC(=O)c3ccccc3)CC1CCc1ccccc12` (some centres undefined), the activation was inactive: 2.88%. As for `CC1(C)SC2C(NC(=O)COc3ccccc3)C(=O)N2C1C(=O)O` (centres undefined), the figure is inactive: 3.14%; as for `COC(=O)[C@H](Cc1ccccc1)NC(=O)[C@@H](N)CC(=O)O` (H-Asp-Phe-OMe), inactive: -2.44% and inactive: -4.96%. As for `COc1ccc2c(c1)-c1nc(-n3ncc(C(=O)N(C)CC4CCCN(C)C4)c3C3CC3)ncc1CC2` (centres undefined), the figure is inactive: -7.27%; as for `CCOC(=O)N1CCN(C(=O)c2ccc(-c3ccccc3OC)nc2N2CCC(N3CCCC(CO)C3)CC2)CC1` (centres undefined), inactive: -0.766%; as for `C1CCC(N=C(NC23CC4CC(CC(C4)C2)C3)N2CCOCC2)CC1`, inactive: 0.0371%. As to `NC1CCN(O)C1=O` (centres undefined), the activation was inactive: -17.5%. As for `O=C(NCCCN1CCOCC1)c1ccc(Cl)cc1`, the figure is inactive: -11%. As for `O=C1CC[C@@H](O)CCN1CC[C@H](Sc1ccc(Br)cc1)c1ccccc1`, the figure is inactive: -23.9%. Then `COC(=O)c1c(OC)cc2c(c1C)Oc1c(Cl)c(O)c(Cl)c(C)c1C(=O)O2`, with inactive: -27.2%; and `CN(C)c1ccc(-c2cncnc2NCc2ccccc2)cc1`, with inactive: -19.7%; and `COc1ccc2c(c1)OC(C)CN(CC(=O)NCc1cn[nH]c1-c1ccc(F)cc1)C2` (centres undefined), with inactive: -9.81%. Consider `O=C(O)[C@@H]1[C@H]2C[C@H]3c4[nH]c5ccccc5c4CCN3C[C@@H]2CC[C@@H]1O`, for which the activation is inactive: 8.17%. Then `C=CC1=C(C)C2=Cc3c(C=C)c(C)c4[n]3[Sn+2][n]3c(c(C)c(CCC(=O)O)c3=CC3=NC(=C4)C(C)=C3CCC(=O)O)=CC1=N2`, with inactive: -9.32%.

In the case of `CC(C)c1c(C(=O)NCc2ccccn2)cnn1-c1nccc(-c2ccccc2F)n1`, the activation was inactive: 1.63%.

Regarding `Cc1ccccc1-c1cnc(-c2ccncc2)nc1C1CCCN(Cc2ccccc2O)C1` (centres undefined), the activation is inactive: 10.6%. As for `O=C(NCc1nnc2n1CCN(Cc1cc3c(cc1Cl)OCO3)CC2)c1cccc(F)c1`, the figure is inactive: -5.25%; as for `COc1cccc(CNC(=O)c2c(OC)cc(=O)n3c2CCN(C(=O)c2ccc(C)s2)CC3)c1`, inactive: 4.94%. For the compound `Cc1ccccc1-c1cncnc1N(C)Cc1ccco1`, the activation is inactive: -3.37%. As for `CCCCCCCCCCCCCCCCCCN(CCCCCCCCCCCCCCCCCC)c1ccc(C=O)cc1`, the figure is inactive: -13.7%. As for `COC(=O)[C@@H]1CCCN1Cc1ccc2c(c1)CN(Cc1ccccc1C)CCO2`, the figure is inactive: 0.219%. For the compound `Cc1ccccc1N=Nc1ccc(N=Nc2c(O)ccc3ccccc23)c(C)c1`, the activation was inactive: -21.4%.

For `O=C(CCC1CCN(Cc2ccccc2)CC1)c1ccc2c(c1)NCCCC2`, the activation was inactive: 3.04%. Regarding `O=C(O)c1c2ccccc2cc2ccccc12`, the activation is inactive: -10.3% and inactive: 0.573%. As for `CO/N=C(\C(=O)N[C@@H]1C(=O)N2C(C(=O)O)=C(COC(C)=O)CS[C@H]12)c1csc(N)n1`, the figure is inactive: -18.1%; as for `CN(Cc1ccco1)c1nc(-c2ccccc2Cl)nc2ccccc12`, inactive: 4.05%; as for `Cc1cnc(C)c(-c2cc(F)cc3c2OC(CNC(=O)c2cc(Cl)ccc2F)C3)n1` (centres undefined), inactive: -12.5%. For the compound `Cc1cc2cc3c(C)cc(=O)oc3c(C)c2o1`, the activation is inactive: -3.98% and inactive: 5.85%. As to `CC(=O)Nc1c(I)cc(I)c(C(=O)O)c1I`, the activation was inactive: -7.72%.

On to `CN1C(C(=O)Nc2ccccn2)C(=O)c2sc(Cl)cc2S1(=O)=O` (centres undefined), for which the activation is inactive: 4.29%. Regarding `CO/N=C(/C(=O)N[C@@H]1C(=O)N2C(C(=O)O)=C(COC(N)=O)CS[C@H]12)c1ccco1`, the activation is inactive: -20.7% and inactive: 12.8%. Then `CC(C)(C)CC(C)(C)N=C1Nc2ccc(Cl)cc2N[C@]12C[C@H]1CCCC(=O)N3CC[C@@H](C2)[C@@H]13`, with inactive: -26.4%; and `CC(=O)Nc1nnc(S(N)(=O)=O)s1`, with inactive: 14.9% and inactive: 8.62% and inactive: -9.53%. Then `COc1cccc(C(=O)NC(C)c2nnc3n2CCN(CC=C(C)C)CC3)c1` (centres undefined), with inactive: -30.4%.

On to `COC1=CC(=O)C(O)=C/C1=C\C=C\c1ccccc1`, for which the activation is inactive: -5.7%.

For `CC(C)Oc1ccc2c(=O)c(-c3ccccc3)coc2c1`, the activation is inactive: -10.9% and inactive: -20%. Then `O=C(Oc1ccccc1)N1CCC2(CC1)CN(c1ccccc1)C2`, with inactive: -5.57%. Then `C=C1c2c(Cl)ccc(O)c2C(O)=C2C(=O)[C@]3(O)C(O)=C(C(N)=O)C(=O)[C@@H](N(C)C)[C@@H]3[C@@H](O)[C@H]12`, with inactive: -4.07%; and `Clc1ccc2nsnc2c1NC1=NCCN1`, with inactive: 9.52% and inactive: -22.2% and inactive: -30.1%. As for `CC(C)C1=CC2=CC[C@@H]3[C@](C)(CO)CCC[C@]3(C)C2CC1` (some centres undefined), the figure is inactive: -31.9%.

Turning to `N#Cc1ccccc1-c1ccc2ncnc(NCc3ccccc3)c2c1`, the activation was inactive: -0.93%. Then `O=[N+]([O-])c1c(Cl)cccc1-c1c[nH]cc1Cl`, with inactive: 12.6%; and `COc1cccc(CNC(=O)c2c(OC)cc(=O)n3c2CCN(C(=O)c2ccoc2C)CC3)c1`, with inactive: -44.1%.

Take `c1ccc(-c2cccc(N3CC4(CCNCC4)C3)c2)cc1`: the activation is inactive: 8.37%. Then `COc1ccc(-n2c(=O)c(-c3cn(C)c4ccccc34)nc3cnc(OC)nc32)cc1`, with inactive: -7.91%; and `CN(C)c1ccc(-c2nc(NC3CCNCC3)c3ccccc3n2)cc1`, with inactive: -7.16%. As for `N#CCCn1c(=O)c(-c2ccc(Cl)cc2)nc2cnc(OCc3ccccc3)nc21`, the figure is inactive: -19.5%; as for `O=C(c1cccc(F)c1)N1CCC2(CCCN(c3ccc(-c4ccccc4)cc3)C2)CC1`, inactive: -3.16%; as for `Cc1nc(CC(=O)N2CCC(n3c(C4CCC4)nc4cccnc43)CC2)cs1`, inactive: -10.7%. Then `O=C(O)c1ccc2nc(-c3ccccc3)c(-c3ccccc3)nc2c1`, with inactive: 11.6%; and `COc1cc(O)c2c(=O)cc(C)oc2c1CC=C(C)C`, with inactive: 4.94% and inactive: -15.5%; and `COC(=O)N1CCC2(CCCN(c3ncccn3)C2)CC1`, with inactive: 1.68%. For the compound `O=C1CC[C@H](N2C(=O)c3ccccc3C2=O)C(=O)N1`, the activation was inactive: -0.276%. On to `OC/C=C/c1ccccc1`, for which the activation was inactive: -13.4%. As to `CCOC(=O)C1=C(N)Oc2ccc(Br)cc2C1C(C#N)C(=O)OCC` (centres undefined), the activation is inactive: 9.24%.

With `CC(C)(C)c1cc(O)c(C(C)(C)C)cc1O`, the activation is inactive: -11.4% and inactive: 10.5%. For the compound `C=Cc1ccc(S(=O)(=O)O)cc1`, the activation was inactive: -9.76%.

For `CCC1CN(CC(=O)NC(C)c2cn(C)nc2C)Cc2cc(OC)ccc2O1` (centres undefined), the activation is inactive: -9.96%.

`CC(C)NC(=O)N1CCC2(CC1)CCN(C(=O)c1cccc(F)c1)CC2`: the activation is inactive: -10.2%.

For `CN(C)c1ncc2nc(-c3ccc(Cl)cc3)c(=O)n(CCC#N)c2n1`, the activation was inactive: -2.32%. For `CCCCOc1cc(C(=O)OCCN(CC)CC)ccc1N`, the activation is inactive: 1.88%. Then `CC1(C)S[C@@H]2[C@H](NC(=O)C(N)c3ccccc3)C(=O)N2[C@H]1C(=O)OC1OC(=O)c2ccccc21` (some centres undefined), with inactive: 9.74%; and `Cc1nc2n(c(=O)c1CCN1CCC(c3noc4cc(F)ccc34)CC1)CCC[C@H]2O`, with inactive: -4.02%; and `COc1ccc(C(=O)N2CCC3(CCCN(C(c4ccccc4)c4ccccc4)C3)CC2)cc1`, with inactive: -12.8%.
